{"source": "the supplement of paper PMC11417369", "note": "Some of the results follow.", "data": [{"system": "PfSIP2 AP2 domain 1 (GST-tagged)", "experiment": "gcPBM binding intensity (ln(normalized median fluorescence intensity)); higher = stronger DNA binding", "procedure,_shortened": "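Alexa488 anti-GST antibody, scanned at 488 nm, detected GST-tagged P. falciparum DNA-binding domains that had been expressed in E. coli and incubated for 1 h on an Agilent 4 × 180k array. The array carried primer-extended double-stranded 36-bp intergenic genomic probes and negative controls. Binding intensity is the highest Masliner-normalised natural-log median intensity across replicate spots of either orientation of each probe.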", "values": [{"sequence": "TAATGATAAATACATACACACAAAAAATAATATATA [CACACA_site2576]", "gcPBM binding intensity (ln)": 6.85}, {"sequence": "TGTTATTATTTGTACACACACATATAGATCCTTGTT [CACACA_site7667]", "gcPBM binding intensity (ln)": 7.17}, {"sequence": "ATTAAAGAGATATATACACACATTATGGGGGAATAA [CACACA_site6226]", "gcPBM binding intensity (ln)": 7.45}, {"sequence": "TGAGGAAACATGAGATGTACATATAAATTTTTTTTT [XGTACX_site2595]", "gcPBM binding intensity (ln)": 6.71}, {"sequence": "CCTAAATATTTTTTATGTACATATTTATCTAAATTT [XGTACX_site6835]", "gcPBM binding intensity (ln)": 7.13}, {"sequence": "ATAGAAATTATAAATAGTACATAATAAAAATGAGCA [XGTACX_site822]", "gcPBM binding intensity (ln)": 7.25}, {"sequence": "TAAGAAATAAATAGTACACACATAGACACCCACCCA [CACACA_site8429]", "gcPBM binding intensity (ln)": 7.39}, {"sequence": "AAACAAAATGGTAACACACACATATATAAATATGTA [CACACA_site6994]", "gcPBM binding intensity (ln)": 6.89}, {"sequence": "AAAAAAAATAGACACACACACATACACATAAATATA [CACACA_site7742]", "gcPBM binding intensity (ln)": 7.01}, {"sequence": "AGGGTTACAAGAGGAACACACAAAAAAATAAATAAA [CACACA_site1436]", "gcPBM binding intensity (ln)": 6.88}, {"sequence": "ATTAAATCTATATATACACACATGTTTGGTATATTC [CACACA_site2657]", "gcPBM binding intensity (ln)": 7.06}, {"sequence": "TTTGTAATAAACTACTTTTTTTTTTTTTTTTTTTTT [CACACA_negctrl_site571]", "gcPBM binding intensity (ln)": 8.36}, {"sequence": "TTTATATTACAATAATATATTAAAAAATAAAATATA [TGCATGCA_negctrl_site18]", "gcPBM binding intensity (ln)": 6.87}, {"sequence": "CGATTACTAATTTTTAGTACATATAATCAATATGTA [XGTACX_site7857]", "gcPBM binding intensity (ln)": 6.89}, {"sequence": "ATCTATTTCTATTGTTGTACTTATTTTTCATTGTTT [XGTACX_site6942]", "gcPBM binding intensity (ln)": 7.27}, {"sequence": "ATGTAGCCTTACGCTTGTACGAATATCTTAATTTTT [XGTACX_site4331]", "gcPBM binding intensity (ln)": 6.82}, {"sequence": "TTCATATAAATACATGCACACAAAAATATCAATACA [CACACA_site8753]", "gcPBM binding intensity (ln)": 8.38}, {"sequence": "ATATATTTTATTACCAGTACATATATTAAAATAATA [XGTACX_site8440]", "gcPBM binding intensity (ln)": 7.22}, {"sequence": "TATACAATATAAAATACACACGCACCCAAAAAAAAA [CACACA_site9174]", "gcPBM binding intensity (ln)": 10.4}, {"sequence": "ATTTTTTTATTTGATTGTACAATTTTCTTTCAAAAT [XGTACX_site2902]", "gcPBM binding intensity (ln)": 7.19}, {"sequence": "ATATAATGTGTAGGCCGTATTTACGTTTGGCAATCA [CACACA_negctrl_site1130]", "gcPBM binding intensity (ln)": 6.97}, {"sequence": "TATAATATAATATATATATATATATATATATAAGAA [CACACA_negctrl_site78]", "gcPBM binding intensity (ln)": 7.66}, {"sequence": "ATATAGGTAATATTTTGTACATATTTTTGGGGTAGT [XGTACX_site5634]", "gcPBM binding intensity (ln)": 7.3}, {"sequence": "AATTCTTTTTTCAACACACACACACCCGAAAATATA [CACACA_site3111]", "gcPBM binding intensity (ln)": 7.36}, {"sequence": "ATATTTTTTGTATGTTGTACATAAAATATACATTTT [XGTACX_site6815]", "gcPBM binding intensity (ln)": 7.01}, {"sequence": "AGATACTTTTTTAAAAGTACAAAAACTTTCGATATA [XGTACX_site959]", "gcPBM binding intensity (ln)": 6.99}, {"sequence": "CATACATACATACATACACACATACATATATATATA [CACACA_site8388]", "gcPBM binding intensity (ln)": 9.32}, {"sequence": "TCTAAAATAGTCCAGAGTACAAGAAACCATAATATA [XGTACX_site5237]", "gcPBM binding intensity (ln)": 6.8}, {"sequence": "ATAAAAATATAAACATGTACATAAAAATCTATATAT [XGTACX_site405]", "gcPBM binding intensity (ln)": 7.22}, {"sequence": "TTGCTTATATTTCTAAAATGTAAAAGACACAAAGGT [XGTACX_negctrl_site225]", "gcPBM binding intensity (ln)": 7.27}, {"sequence": "TTCTAATATATGCATACACACAAATGTGAATATACA [CACACA_site2142]", "gcPBM binding intensity (ln)": 7.16}, {"sequence": "ATATATTTATTTATATGTACATAATATTTTTCTCAG [XGTACX_site800]", "gcPBM binding intensity (ln)": 7.04}, {"sequence": "AAAAAAAAAAAAAACACACACACACCCAAATATATA [CACACA_site1169]", "gcPBM binding intensity (ln)": 7.4}, {"sequence": "AAAAATGCAATTTAATGTACACATAAGATGTTATTT [XGTACX_site6853]", "gcPBM binding intensity (ln)": 6.93}, {"sequence": "TTTTTTATTACTTTGTGTACTTACACAGAACCTTAT [XGTACX_site6038]", "gcPBM binding intensity (ln)": 7.34}, {"sequence": "ATGTATAAACATATATGTACTTAAATAAAATGTTAA [XGTACX_site4044]", "gcPBM binding intensity (ln)": 7.13}, {"sequence": "AAAAATAAAAAAATAATAAAATAAAAAATAAAAAAT [TGCATGCA_negctrl_site89]", "gcPBM binding intensity (ln)": 6.85}, {"sequence": "TAAAAAAACATATATTGTACGGAGATAATAATTTTT [XGTACX_site2946]", "gcPBM binding intensity (ln)": 6.75}, {"sequence": "TATACTGTCAATTCTACACACCATAGGGGGAGCATA [CACACA_site1875]", "gcPBM binding intensity (ln)": 8.06}, {"sequence": "CACCAATTCATATGCACACACATCTGCATATTATAT [CACACA_site1773]", "gcPBM binding intensity (ln)": 7.43}, {"sequence": "ATTAAAAGAACAATGTAAAAAAAGCAAATTAAAGAT [TGCATGCA_negctrl_site360]", "gcPBM binding intensity (ln)": 7.29}, {"sequence": "TTATTAAATGAAAAATGTACATATAAATGATTATAT [XGTACX_site2788]", "gcPBM binding intensity (ln)": 6.96}, {"sequence": "GAAATGTGTAGACACGCACACACAAAAAAATATATA [CACACA_site2912]", "gcPBM binding intensity (ln)": 6.97}, {"sequence": "CCAAATTTATAAAGAACACACACATATATATATATA [CACACA_site7900]", "gcPBM binding intensity (ln)": 9.1}, {"sequence": "TATACATATTTAATATGTACATAATAATACTTATTC [XGTACX_site6939]", "gcPBM binding intensity (ln)": 6.95}, {"sequence": "AAGCATGTAGAATAATGTACTTGTGATTTTAATATA [XGTACX_site8565]", "gcPBM binding intensity (ln)": 6.8}, {"sequence": "AAAAAAAAAATACAGGTGCAATAAGAAAAAAATGGT", "gcPBM binding intensity (ln)": 10.2}, {"sequence": "TATATTAACAAAATGGTGCAATAATTTCTATATTAT [GTGCAC_site9857]", "gcPBM binding intensity (ln)": 10.4}, {"sequence": "TAATATTTATCAAGTCGTACATAAAATGTATAATAA [XGTACX_site1103]", "gcPBM binding intensity (ln)": 6.93}, {"sequence": "ACAAAGAAATATAATACACACAAGAATATATTGGAT [CACACA_site3901]", "gcPBM binding intensity (ln)": 6.98}, {"sequence": "GTACAATAAGATGTAGCATGCCGTACCTTCACTACG [TGCATGCA_site235]", "gcPBM binding intensity (ln)": 6.83}, {"sequence": "ATACTGTATGAAAGCACACATACTTATTACTAACAT [CACACA_site4164]", "gcPBM binding intensity (ln)": 7.02}, {"sequence": "TATACATATTTGTATTGTACATAAACTAAATCTTCA [XGTACX_site610]", "gcPBM binding intensity (ln)": 6.73}, {"sequence": "CAAATAACAAAATAATGTACATTTATACTTTTTTTT [XGTACX_site943]", "gcPBM binding intensity (ln)": 6.88}, {"sequence": "TATCTCTACAAAATTTTATTCATTATTCATGTTATA [XGTACX_negctrl_site452]", "gcPBM binding intensity (ln)": 6.98}, {"sequence": "TCTAATAAAATAAATACATGCATACATACATACATA [TGCATGCA_site895]", "gcPBM binding intensity (ln)": 7.11}]}]}
